Results on 41 compounds are retold here after ChEMBL document CHEMBL4888484, “Replenishing the malaria drug discovery pipeline: Screening and hit evaluation of the MMV Hit Generation Library 1 (HGL1) against asexual blood stage Plasmodium falciparum ,using a nano luciferase reporter read-out” (2022).

Among all 150,000 compounds or so, about 540 (0.36%) showed an effect of 50% or more. This is one part of the list.

This assay relates to Plasmodium falciparum. Put plainly: Primary screen in NF54 nanoGlo assay, in single point, at 2uM, 72h; a lower Z score goes with more inhibition. The class given is functional, Erythrocyte. The following applies: timepoint 72 hour.
Regarding `Cc1cc(C)c2c(=O)n(CC(=O)NC3CCCCC3)c(=O)n(-c3ccccc3)c2n1`, the % Inhibition – broadly, the drop in the measured response relative to a control, in per cent – is -11% and the Z score was 1.38.

As to `CCOc1cc(C(=O)N[C@H]2CCS(=O)(=O)C2)cc2occc12`, the “% Inhibition” value is on record as 43% and the Z score is recorded as -5.75.

Take `CCC(=O)OC1(C#CCOc2ccc(OC)cc2)CCN(C)CC1`: the “% Inhibition” value was found to be 37% and the Z score is listed as -4.15.

Consider `COc1ccc(S(=O)(=O)n2nc(Nc3ccc(Cl)cc3)cc2Nc2ccc(Cl)cc2)cc1`, for which the “% Inhibition” value stood at 2% and the Z score is -0.34.

Take `Cc1ccc2nc(NC(=O)CCC(=O)c3ccc4c(c3)OCCO4)sc2c1`: the “% Inhibition” value is reported as -4% and the Z score was 0.74.

On to `CC(C)N(C)C(=O)NC[C@H]1COC2(CCCCCC2)O1`, for which the “% Inhibition” value is on record as -8% and the Z score is 1.01.

Turning to `Cc1nc(C)c(C(=O)N2CCC([C@]3(c4cccnc4)NC(=O)N(Cc4ccsc4)C3=O)CC2)s1`, the “% Inhibition” value was found to be 6% and the Z score was -0.98.

As for `COc1ccccc1CNC(=O)CN(Cc1nccn1C)C1CC1`, the “% Inhibition” value is given as 1% and the Z score is on record as -0.25.

In the case of `O=C(Nc1cccnc1)[C@H]1CC(=O)N(Cc2cccc(C(F)(F)F)c2)C1`, the “% Inhibition” value was found to be 2% and the Z score was -0.16.

In the case of `CCc1ccccc1NC(=O)C1CCN(c2nnc(C)c3c(C)n(-c4ccc(Cl)cc4)nc23)CC1`, the “% Inhibition” value is recorded as 17% and the Z score is -1.98.

`O=C(CCN1CCOC1=O)Nc1nc2cc(F)c(F)cc2s1`: the “% Inhibition” value is listed as 1% and the Z score was -0.13.

Take `C/C=C(\C)CN1CCC2(CC1)c1ccccc1[C@@H](NC(=O)C(C)C)[C@@H]2OCCOC`: the “% Inhibition” value is recorded as -12% and the Z score is 1.4.

In the case of `CC1CCC2(CCN(S(=O)(=O)c3ccc4c(c3)CCCC4=O)C2)C1` (configuration not stated), the “% Inhibition” value was -11% and the Z score worked out at 1.41.

Consider `O=C1C[C@@H](c2ccccc2)N(S(=O)(=O)c2ccccc2)CCCCCN1`, for which the “% Inhibition” value is -7% and the Z score stood at 0.94.

Regarding `CN1C[C@@H](C(=O)NCC2(N3CCOCC3)CCCCC2)CC1=O`, the “% Inhibition” value amounted to 2% and the Z score is -0.3.

For the compound `Cc1ccccc1[C@@]1(CC(=O)NCc2cncn2C2CC2)CCOC(C)(C)C1`, the “% Inhibition” value was -16% and the Z score is recorded as 1.7.

For `O=S(=O)(c1ccccc1F)N1CCCCC[C@H]1c1ccccc1Cl`, the “% Inhibition” value is on record as -20% and the Z score was 2.71.

For the compound `c1cc(N[C@@H]2[C@@H]3CCO[C@@H]3[C@@H]2C2CCCC2)ccn1`, the “% Inhibition” value is -12% and the Z score was 1.08.

With `CC(C)C(=O)Nc1nc2nccnc2c(=O)[nH]1`, the “% Inhibition” value is given as -7% and the Z score came out at 0.78.

With `O=C(N1CCC[C@@]2(CCS(=O)(=O)C2)C1)C1(O)CCCC1`, the “% Inhibition” value is given as -3% and the Z score amounted to 0.31.

Turning to `O=C(Nc1cc(S(=O)(=O)N2CCOCC2)ccc1Oc1ccc(F)cc1)C1CCCCC1`, the “% Inhibition” value came out at 13% and the Z score is reported as -1.5.

Consider `Cn1cc(C(=O)C(C#N)C(=O)NCC2CCCO2)c2ccccc21` (configuration not stated), for which the “% Inhibition” value is on record as -8% and the Z score stood at 1.21.

Take `O=C(c1c[nH]c2cc(F)ccc12)N1C[C@H]2CCS(=O)(=O)[C@H]2C1`: the “% Inhibition” value is reported as -14% and the Z score is listed as 1.85.

For `CCN(Cc1nnsc1Cl)[C@H]1CCN(c2ccccc2)C1=O`, the “% Inhibition” value is 0% and the Z score is reported as -0.03.

`CN(C(=O)Cc1cc(Br)ccc1F)c1nncn1C`: the “% Inhibition” value is listed as 37% and the Z score is -5.37.

Turning to `Cc1ccc(NC(=O)c2nc(-c3cn(-c4ccc(C)cc4)nn3)no2)cc1`, the “% Inhibition” value is recorded as -10% and the Z score is on record as 2.02.

On to `Fc1cc(Br)ccc1OCc1nnc(C2CC2)o1`, for which the “% Inhibition” value is listed as -9% and the Z score stood at 1.04.

With `CCCCc1nc(CN2CCC[C@H]2C(=O)NC)no1`, the “% Inhibition” value is on record as -4% and the Z score came out at 0.55.

As to `C=C(C)COc1c(OC)cccc1[C@H]1CC(=O)NCc2nc(N)sc21`, the “% Inhibition” value is on record as -4% and the Z score was 0.57.

As for `CC(C)CCN1CCC[C@@H]1Cn1cncn1`, the “% Inhibition” value is -2% and the Z score is on record as 0.24.

In the case of `Cc1ncccc1C(=O)N(C)C[C@@H]1CC(F)(F)CN1C1CN(C)C1`, the “% Inhibition” value is recorded as -6% and the Z score is on record as 1.06.

As to `COc1ccc(-c2nc(NCc3nnc4ccccn34)[nH]c(=O)c2C#N)cc1`, the “% Inhibition” value is 10% and the Z score is on record as -1.91.

Turning to `CCN1C(=O)C[C@H](Nc2ccc3c(c2)OCCO3)C1=O`, the “% Inhibition” value is listed as -7% and the Z score is on record as 1.24.

Take `C[C@@]1(C(=O)NCc2cccc(Br)c2)Oc2cccnc2NC1=O`: the “% Inhibition” value is on record as -5% and the Z score turned out to be 0.9.

For the compound `CO[C@@H](C(=O)N1CCc2cn[nH]c2C1)c1ccccc1C(F)(F)F`, the “% Inhibition” value is given as 3% and the Z score is recorded as -0.6.

For the compound `COc1cc(C(=O)NC2CCCCC2)ccc1OCc1ccc(Cl)cc1Cl`, the “% Inhibition” value is on record as 1% and the Z score was -0.19.

Turning to `COc1ccc(CNC(=O)N2CCC(n3ccnn3)CC2)cc1OC`, the “% Inhibition” value is listed as -16% and the Z score was 2.44.

As to `Cc1ccc(CN2CCN(C(=O)C[C@]3(c4ccccc4F)CC(=O)N(C)C3=O)CC2=O)cc1`, the “% Inhibition” value is 9% and the Z score is reported as -1.14.

As to `COc1cc2c(cc1CN1CC[C@H](CO)[C@@H](O)C1)OCO2`, the “% Inhibition” value was found to be 2% and the Z score is listed as -0.18.

`NC(=O)[C@H]1CCCN1C(=O)C1CCN(c2cc(Cl)ccc2Cl)C1=O` (some centres not stated): the “% Inhibition” value is -10% and the Z score stood at 1.9.

`COCCN1CC2(CCC1=O)CCN(C(=O)c1cnc(C)cn1)CC2`: the “% Inhibition” value is listed as -1% and the Z score was found to be 0.2.
